These results are taken from the RNAGym collection of RNA variant scans (doi:10.1073/pnas.2313332121).

Variants at the floor of the assay are shown more often than the library holds them.

The labels stand for the following.
B1: TPR 5TU (parent)
chain: GGAUCUUCUCGAUCUAACAAAAAAGACAAAUCUGCCACAAAGCUUGAGAGCAUCUUCGGAUGCAGAGGCGGCAGCCUUCGGUGGCGCGAUAGCGCCAACGUUCUCAACUAUGACACGCAAAACGCGUGCUCCGUUGAAUGGAGUUUAUCAUG

Variants of B1 are the subject of the series. Nature of the series: polymerase ribozyme fitness, log enrichment relative to wild type (log ratio); higher = more active; in vitro selection for triplet polymerase activity. A digest of the protocol: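 Libraries of mutants in each subunit of a heterodimeric triplet polymerase ribozyme were generated by PCR and transcribed. In triplicate, each went through one in vitro selection round: annealing with biotinylated primer, partner subunit and triplets; frozen incubation at −7 °C; gel excision of extended constructs; streptavidin-bead capture; RT-PCR. Fitness, taken from Illumina sequencing of input and output libraries, is the logarithm of a genotype's enrichment over wild-type enrichment, averaged across replicates with inverse-variance weights. The logarithm is base 2, and genotypes needed ≥10 input reads and ≥1 read per output to be kept.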
Turning to A24G G34U G83U A91C C99U A107U, the “polymerase ribozyme fitness (log ratio)” value is at most -4.2. Consider A24C C54A, for which the “polymerase ribozyme fitness (log ratio)” value was at most -4.2. As to A24C A52G U78A G92A C129G G141A, the “polymerase ribozyme fitness (log ratio)” value was at most -4.2. For the variant A24G C38A A52G C85A, the “polymerase ribozyme fitness (log ratio)” value is at most -4.2.

A24U U53A U56G C57U A91U: the “polymerase ribozyme fitness (log ratio)” value was at most -4.2. Take G25A C32G C57G U104A A107U: the “polymerase ribozyme fitness (log ratio)” value was at most -4.2. Take G25A C76U C87A A110G A120G: the “polymerase ribozyme fitness (log ratio)” value was at most -4.2. The figure for A24G G141C G143C is at most -4.2; for A24U G80C U90A A115G G140U U145G it is at most -4.2; for A24C G48U it is at most -4.2.

As to A24C G48A, the “polymerase ribozyme fitness (log ratio)” value was at most -4.2. A24C A47C A49C A64C C95A U102G C131A A150C: the “polymerase ribozyme fitness (log ratio)” value is at most -4.2.

On to A24U C54A G58A G84A A120G G126U, for which the “polymerase ribozyme fitness (log ratio)” value is -1.19. In the case of A24U A39U A40G C51A G67A C93G, the “polymerase ribozyme fitness (log ratio)” value was at most -4.2. The figure for A24G G92U A122G is at most -4.2; for A24U A37G C93G U139G it is at most -4.2; for A24G A52U C85A G140A A142G it is at most -4.2.

A24G C54A: the “polymerase ribozyme fitness (log ratio)” value is -3.54. A24U U33A C95U: the “polymerase ribozyme fitness (log ratio)” value was at most -4.2.

On to A24U A28U G48C U55A U56A A98G C125A, for which the “polymerase ribozyme fitness (log ratio)” value was at most -4.2. With A24U A26C A40G C87U U104C A115C C118A A142C, the “polymerase ribozyme fitness (log ratio)” value is at most -4.2. For A24G A26U U56A C87G C123A C132G G133U, the “polymerase ribozyme fitness (log ratio)” value is at most -4.2. A24C A28U U31A C93U C99G A138C: the “polymerase ribozyme fitness (log ratio)” value is at most -4.2. The figure for G25A A28U A49C C54U C79G G86A U134G is at most -4.2; for A24G A49C A91U G94U C96U A120G G133C it is at most -4.2. As to A24U G34C C79G C87U A137U, the “polymerase ribozyme fitness (log ratio)” value was at most -4.2.

For A24G U33G C87U U101G G140C, the “polymerase ribozyme fitness (log ratio)” value is at most -4.2. The figure for A24C C87G A120U is at most -4.2; for G25A C79G A110C A113U it is at most -4.2.

As to A24G C27A A39G, the “polymerase ribozyme fitness (log ratio)” value is at most -4.2. The figure for A24C C27G U44G C54U A91G C95U G112A A115U C118A G128C is at most -4.2; for A24G C35A G50A A110U C149A it is at most -4.2. On to A24C C87U A89U U134A, for which the “polymerase ribozyme fitness (log ratio)” value is at most -4.2. On to A24U U82A C96G, for which the “polymerase ribozyme fitness (log ratio)” value was 0.476.

Take A24U A41U G42U C87U C108U: the “polymerase ribozyme fitness (log ratio)” value was at most -4.2. The value for A24U C51A C76A A115C U139A was at most -4.2; that for A24C A40C C87A C99A C116A G140U was at most -4.2. In the case of A24U G48A U55A G70A C87A C114U G152U, the “polymerase ribozyme fitness (log ratio)” value is at most -4.2. The figure for A24C A29U U55G G86A A106G G136C is at most -4.2; for G25A A64G G84U A110U it is at most -4.2; for A24U C36G U44G C63U C75U G84U C93G C118A it is at most -4.2. Consider A24C C118U G143C, for which the “polymerase ribozyme fitness (log ratio)” value was at most -4.2. As for A24C A30C U127G, the “polymerase ribozyme fitness (log ratio)” value was at most -4.2. The figure for A24U U44C G84U G143A is at most -4.2; for A24U G84A C87U A97U A120C G143A U144G it is at most -4.2; for A24G A60U G62U A73U C95A A97G C99G A106U G126C it is at most -4.2.

Consider A24C C85U, for which the “polymerase ribozyme fitness (log ratio)” value was -3.65. Regarding A24C C35G G42U C43U C87A C131U, the “polymerase ribozyme fitness (log ratio)” value was at most -4.2. Turning to G25A A28U U53A C57G A73G U82A C93G U134A U148G, the “polymerase ribozyme fitness (log ratio)” value is at most -4.2.

As to A24C C54A A60G A73U U77G, the “polymerase ribozyme fitness (log ratio)” value is at most -4.2.

A24C A49U C85G G88A C95A U104A U146A: the “polymerase ribozyme fitness (log ratio)” value is at most -4.2. In the case of A24C C95A C96G U144C, the “polymerase ribozyme fitness (log ratio)” value was at most -4.2. Regarding A24C U56A C79G G86U A119G C129G, the “polymerase ribozyme fitness (log ratio)” value is at most -4.2. The figure for G25A U53A A107C U135G A142U is at most -4.2; for A24U A29U C51G G86A A98U G136U it is at most -4.2; for A24G G81U C93A C103G G112C G141A G143C it is at most -4.2. The value for A24U A26C C35G C43U U146G A150U was at most -4.2; that for A24G G140A was at most -4.2; that for A24C C38G A49U G59C U61A G128U was at most -4.2. Take A24U G86C: the “polymerase ribozyme fitness (log ratio)” value was -2.81. As to A24U G42C G50U C85G G136A G141A, the “polymerase ribozyme fitness (log ratio)” value was at most -4.2. In the case of A24G A39G G67C C93G C116G U139C U151C, the “polymerase ribozyme fitness (log ratio)” value was at most -4.2.

As to G25A A26G G84A C96G A113C, the “polymerase ribozyme fitness (log ratio)” value was at most -4.2. The figure for A24U A40U U61A U90G A115G A121G G141C is at most -4.2; for A24C A73G C79G G81A U82G U102G U148C G152U it is at most -4.2; for A24U C51U C57A C63U C93A A107C C125A it is at most -4.2. With A24U G58U A106U U139C U145G, the “polymerase ribozyme fitness (log ratio)” value was at most -4.2. A24G G50A A106U: the “polymerase ribozyme fitness (log ratio)” value is at most -4.2.

On to G25A A41C A106G A121G A137G U148A, for which the “polymerase ribozyme fitness (log ratio)” value is at most -4.2. Consider A24U C32A A47C G59U U90C U101G, for which the “polymerase ribozyme fitness (log ratio)” value is at most -4.2. For A24C C27G A29U C57U G86C C103A, the “polymerase ribozyme fitness (log ratio)” value is at most -4.2. As to A24G C75A A113U, the “polymerase ribozyme fitness (log ratio)” value is at most -4.2. As to A24C A73G G83C G143U, the “polymerase ribozyme fitness (log ratio)” value is at most -4.2. As for A24U C149G, the “polymerase ribozyme fitness (log ratio)” value is -3.88. On to A24U A28U G70A G81C C85A C96G G124U, for which the “polymerase ribozyme fitness (log ratio)” value was at most -4.2. The figure for A24U C32A C54A C76G G83A A107C C114A is at most -4.2. Take A24U U33C A47U C93G: the “polymerase ribozyme fitness (log ratio)” value was at most -4.2. The value for A24U U33C C93A C116G A137C was at most -4.2.

Take A24G C57G G59U A73U C96U C105G C108G: the “polymerase ribozyme fitness (log ratio)” value was at most -4.2. The figure for A24C A73C G86U C96A is at most -4.2; for A24U C32G U55G U78A U104G it is at most -4.2.

For the variant G25A C38U C85G, the “polymerase ribozyme fitness (log ratio)” value was -4.07. Take A24G C43U C93U G141C: the “polymerase ribozyme fitness (log ratio)” value was at most -4.2.
